Test results from the RNAGym collection of RNA variant scans (doi:10.7554/elife.90254).
The source gives no read counts; variants with many changes may rest on few reads.

B1: LINE1-mini (parent)
chain: GGCAGAGCUCAACACAGCGUGGCAAAGUGGCUGUGGCUAGACUGCC

Variants of: B1
Test: self-cleavage, relative activity (ratio to wild type); higher = more cleavage; in vitro, sequencing; the parent is a self-cleaving ribozyme

| Variant | self-cleavage |
| --- | --- |
| U9A G36C U38C | 0 |
| U9G C15U A24C C45U | 0.02 |
| U9A G33U U43G | 0 |
| U9C C13U U32A | 0.06 |
| U9C A24U C37U | 0.02 |
| C10A A11G C18G C37A A41G C42A | 0 |
| U9C U32C C42A | 0.03 |
| U9A U28G G35C C37A | 0.17 |
| U9C U32C G40U | 0.01 |
| C10A A11G G30A C46G | 0.02 |
| U9C A11G C13G C18A G29A C37U | 0.01 |
| U9C G35U C37U | 0.05 |
| C10A A11G G21U C42G | 0.01 |
| U9A U34C C42A | 0.13 |
| U9C C13U G30U U38C C42U | 0 |
| C10A A14C C31G G36C A41G C45G C46A | 0.01 |
| U9G G19U G22A U34C G36U A41U G44C | 0 |
| U9C C10G U38C | 0 |
| U9C G36U G40A | 0.1 |
| C10A A14U C23U C42U | 0.26 |
| U9G G27U U28A | 0.13 |
| U9G A12C G27C | 0.01 |
| U9A G22U A41C | 0.13 |
| C10A A14G G22U G27C C31U G33C U38G | 0 |

| Variant | self-cleavage |
| --- | --- |
| U9G U20G G27A G29A G35C | 0.07 |
| U9A G27U U28A | 0.07 |
| C10A A14U C18U G35C G44U | 0.03 |
| C10A A14G C31U A39G C42U | 0.02 |
| U9G A11U G30U U43G | 0 |
| U9C G19C A25U | 0.02 |
| U9G C13U U20G | 0 |
| U9G C13A C23A A25U G33U G36U G44U C46A | 0.01 |
| U9G G36A G40A | 0.68 |
| U9G G19U G21U | 0 |
| C10A A16G A24C C46A | 0.02 |
| U9G C10U A25G | 0.01 |
| U9A G21A A25U U32A A39G | 0.06 |
| U9G G36U C45A | 0.52 |
| U9A G22A G35U A41U U43C | 0.03 |
| U9G C10U A16U G36A | 0.01 |
| U9C U20C G40C | 0.01 |
| U9G A12C C18A | 0.03 |
| U9C U32A C45U | 0 |
| U9G U32C U34A C37U | 0.02 |
| U9C A16U A24U G33A U34A | 0.01 |
| U9A G21A C46G | 0.14 |
| U9G A16G G19U C37U C45G | 0.04 |
| U9C G17C U20G U38G U43A | 0.01 |

| Variant | self-cleavage |
| --- | --- |
| U9C A39G A41C | 0.03 |
| C10A A25G A26C | 0.02 |
| C10A A24C C37U | 0.01 |
| C10A A11U G30A G44A | 0 |
| U9A U20G A24U A25G | 0.1 |
| C10A A14G G21C G33C | 0 |
| U9A G21C A26G G29U G36C | 0.01 |
| U9G G27A C46A | 0.24 |
| U9A U20G G30U C31U | 0.02 |
| U9C A11U C18U | 0.01 |
| U9C A14U C23G A26C C46G | 0.02 |
| U9G A12C G21C A25C A26C C31G | 0 |
| U9C A14C G44A | 0.07 |
| U9A G19U A25C A26C | 0.03 |
| U9A U20A G29A U34A G44C | 0.02 |
| U9A U38G G40C | 0.27 |
| U9C G22A C31G A41U C42A | 0.01 |
| C10A A24C C42A | 0.03 |
| U9G C10G U20G U32C | 0.01 |
| U9G G19U G33A U34A C42U C45G | 0.14 |
| U9G C15U U38C | 0.11 |
| U9A G21U C45U | 0.03 |
| C10A A14C A25C A26C G35U U38G C42U | 0.02 |
| U9G A26U G33A G35U U43A | 0.01 |

| Variant | self-cleavage |
| --- | --- |
| U9C G30U C31U C37G U38C A39U | 0.07 |
| C10A A12G C42A | 0.01 |
| U9C C13U G33C | 0 |
| U9C A11U U32A | 0.02 |
| U9G G21U G44U | 0.01 |
| U9A G30U C31A U32A C37U | 0.14 |
| U9A G22A U38A | 0.43 |
| U9G G22U C46U | 0.13 |
| U9A G21U A39U | 0.02 |
| C10A A12U G27A | 0.02 |
| U9G U20A A24U C46U | 0.02 |
| U9G C15G A25G U28G G35U | 0.01 |
| U9G A14C U34C | 0.01 |
| U9C A12G C18G G21U C42U | 0.01 |
| U9G G19A G22U U32C | 0.09 |
| U9G G33C C45G | 0.03 |
| U9G G27C C31A U32C | 0.1 |
| U9A U32G U38C | 0.13 |
| U9C C10U U34A | 0.05 |
| U9G A14G G40A C42A | 0.04 |
| U9C U20G G29C A41G | 0.02 |
| U9G A25C G40U | 0.03 |
| C10A A12U C31U G44C | 0 |
| U9G C18U A25G C37A | 0.15 |

| Variant | self-cleavage |
| --- | --- |
| U9G C15U U20G G40U | 0.36 |
| U9A G19U U28C C42A | 0.06 |
| U9C G36C C42A | 0.01 |
| U9C C10G C31A | 0.09 |
| U9G C18G U20A G27U | 0.06 |
| U9C A26C U28A | 0.02 |
| U9G G21C G36C C37U | 0.06 |
| U9C C10G G29C G30A C37U | 0.01 |
| U9C G21C G29C G44C | 0.03 |
| U9C C10U C13U A14C G33A | 0.01 |
| U9G C10A G17A A26C | 0.03 |
| C10A A16U U38G G44A | 0.03 |
| U9G C18U G21C C23G C46A | 0.03 |
| C10A A12C C13G G21U C23U C31G | 0.02 |
| U9G G17U U20C G22U C31U | 0.04 |
| U9C A26U G33U | 0.04 |
| U9C C10G A39G G40U | 0.01 |
| C10A A12G C45A | 0.03 |
| U9C U34G G40U | 0 |
| U9C C13G G30U C42A | 0.01 |
| U9C A14G A24C C31A G33C | 0.02 |
| U9G U34G C45U | 0.05 |
| U9G A12C C15G G27A G36U | 0.01 |
| U9C C10A A39G | 0 |

| Variant | self-cleavage |
| --- | --- |
| U9G C15A G33C C45G | 0.01 |
| U9G C10G U28A U32C | 0 |
| U9C G17C G40A C45G | 0.01 |
| U9G U38A C42G | 0.04 |
| U9C A16G C31U G40C G44A | 0.01 |
| U9G A14C A25G | 0.05 |
| U9C A12G A39U G44A | 0.01 |
| C10A A11G A12U C15U G29A A41U | 0.01 |
| C10A A16C C18G | 0.01 |
| U9G G29A U32A | 0.04 |
| U9C C37A A39U | 0.04 |
| C10A A25C G27C A41U | 0.01 |
| U9A U20C G29A | 0.07 |
| U9G C10U A14U | 0.05 |
| U9C A16C G22A A24C | 0 |
| C10A A11G G44C | 0.02 |
| U9C U34A A41C | 0.05 |
| U9G A14U G29C G40U | 0.05 |
| U9C G40U C45U | 0.16 |
| U9G C23A C46G | 0.04 |
| U9G A11C G19A G30A | 0.01 |
| C10A A11G A16C G19C G33A G35A A41C | 0 |
| C10A A12C U38A | 0.03 |
| U9C U20C A26C A39G | 0.03 |

| Variant | self-cleavage |
| --- | --- |
| U9A G19U G27U | 0.11 |
| U9G A16G C46A | 0 |
| C10A A14G G27U G30C | 0.01 |
| U9G C13A C42G | 0.11 |
| C10A A11C A25C G36U | 0.04 |
| U9A G29A C42A | 0.04 |
| U9C A25C G40C | 0 |
| U9A U20G C23A G35U A39U | 0.11 |
| C10A A11U A16C C45G | 0 |
| U9G G29A G33U | 0.07 |
| U9G C23A A24C | 0.01 |
| C10A A14C A26G | 0 |
| U9G A16U U28G | 0.01 |
| C10A A12C U20C G22U A25U G33A G40C | 0 |
| U9A U20G G27C | 0.05 |
| U9C A12U A26C A39C | 0.07 |
| U9C C13U G27A G30U | 0.02 |
| U9C A12G G22U G29U G44C | 0.01 |
| U9C U32G U38C | 0.06 |
| C10A A11U C23A C37A | 0.01 |
| U9A G27U C45A | 0.06 |
| U9G C13U C37U U38A | 0.05 |
| U9G G17U G21C G35U A39G G40U | 0 |
